Three molecules from patent US20120189541A1 (AbbVie / Abbott, published 2012) can be followed below.

Assay [1] deals with T1, Recombinant Human IL-1α (human, UniProt P01583 113-271).
T1 sequence (looked up): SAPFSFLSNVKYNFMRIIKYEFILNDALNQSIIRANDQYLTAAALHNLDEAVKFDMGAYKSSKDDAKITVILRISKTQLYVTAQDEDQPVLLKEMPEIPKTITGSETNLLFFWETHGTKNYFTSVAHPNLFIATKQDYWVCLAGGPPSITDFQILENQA
Description: cell-based or functional assay.

The target of assay [2] is T2, Recombinant Human IL-1β (human, UniProt P01584 117-269). Description: cell-based or functional assay.
The target in assay [3] is T1, Recombinant Human IL-1α. Briefly: SPR (BIACORE), human antigen. As to the method:
(§1) The BIACORE assay (Biacore, Inc, Piscataway, N.J.) determines the affinity of antibodies or DVD-Ig molecule with kinetic measurements of on-rate and off-rate constants. Binding of antibodies or DVD-Ig molecule to a target antigen (for example, a purified recombinant target antigen) is determined by surface plasmon resonance-based measurements with a Biacore® 1000 or 3000 instrument (Biacore® AB, Uppsala, Sweden) using running HBS-EP (10 mM HEPES [pH 7.4], 150 mM NaCl, 3 mM EDTA, and 0.005% surfactant P20) at 25° C. All chemicals are obtained from Biacore® AB (Uppsala, Sweden) or otherwise from a different source as described in the text. For example, approximately 5000 RU of goat anti-mouse IgG, (Fcγ), fragment specific polyclonal antibody (Pierce Biotechnology Inc, Rockford, Ill.) diluted in 10 mM sodium acetate (pH 4.5) is directly immobilized across a CM5 research grade biosensor chip using a standard amine coupling kit according to manufacturer's instructions and procedures at 25 μg/ml. Unreacted moieties on the biosensor surface are blocked with ethanolamine. Modified carboxymethyl dextran surface in flowcell 2 and 4 is used as a reaction surface. Unmodified carboxymethyl dextran without goat anti-mouse IgG in flow cell 1 and 3 is used as the reference surface. For kinetic analysis, rate equations derived from the 1:1 Langmuir binding model are fitted simultaneously to association and dissociation phases of all eight injections (using global fit analysis) with the use of Biaevaluation 4.0.1 software. Purified antibodies or DVD-Ig molecule are diluted in HEPES-buffered saline for capture across goat anti-mouse IgG specific reaction surfaces. Antibodies or DVD-Ig molecule to be captured as a ligand (25 μg/ml) are injected over reaction matrices at a flow rate of 5 μl/min. The association and dissociation rate constants, kₒₙ (M⁻¹s⁻¹) and koff (s⁻¹) are determined under a continuous flow rate of 25 μl/minute. Rate constants are derived by making kinetic binding measurements at different antigen concentrations ranging from 10-200 nM. The equilibrium dissociation constant (M) of the reaction between antibodies or DVD-Ig molecules and the target antigen is then calculated from the kinetic rate constants by the following formula: KD=koff/kₒₙ. Binding is recorded as a function of time and kinetic rate constants are calculated.
In general terms: Surface plasmon resonance follows binding to a sensor surface in real time, without labels.

Assay [4] deals with T2, Recombinant Human IL-1β. Briefly: SPR (BIACORE), human antigen. How it is done: as §1
For assay [5], the target named is T1, Recombinant Human IL-1α. Briefly: capture ELISA: DVD-Ig captured by anti-human Fc, biotinylated antigen titrated; C-terminal VD. As to the method:
(§2) Plates were washed five times in washing buffer (PBS containing 0.05% Tween 20) and blocked for 1 hour at 25° C. with 200 μl per well superblock blocking buffer (Thermo scientific, #37515). Blocking buffer was removed, and 2 μg/ml of each antibody or DVD-Ig molecule in PBS containing 10% superblock, 0.5% Tween-20 was added to the wells at 100 μl per well and incubated at 25° C. for 1 hour. The wells were washed five times in 1×PBST, and 1 μg/ml biotinylated antigen was titrated at 1:6 serial dilutions (for a range of μg to pg in PBS containing 10% superblock, 0.05% tween 20). Each dilution of antigen was then added to the plates and incubated for 1 hour at 25° C. The wells were washed five times in 1×PBST and incubated for 1 hour at 25° C. with polyHRP streptavidin (KPL #474-3000, Gaithersburg, Md.). The wells were washed five times in 1×PBST, and 100 μl of ULTRA-TMB ELISA (Pierce, Rockford, Ill.) were added per well. Following color development the reaction was stopped with 1N HCL and absorbance at 450 nm is measured.

Assay [6] has as its target T2, Recombinant Human IL-1β. Description: capture ELISA: DVD-Ig captured by anti-human Fc, biotinylated antigen titrated; N-terminal VD. As to the method: as §2
Background: ELISA stands for enzyme-linked immunosorbent assay.

B1: 1B12.1-SS-3D12r16 (bispecific antibody, human IgG1, kappa)
heavy: EVQLQESGPGLVKPSETLSLTCTVSGFSLSDYGVSWIRQPPGKGLEWLGLIWGGGDTYYNSPLKSRLTISKDNSKSQVSLKLSSVTAADTAVYYCAKQRTLWGYDLYGMDYWGQGTLVTVSSASTKGPEVQLVQSGAEVKKPGASVKVSCKASGYTFKYYGMNWVRQAPGQGLERMGWINTYTGQSTYADDFKGRVTFTLDTSTSTAYMELSSLRSEDTAVYYCARDIYYYGSDFAMDYWGQGTTVTVSSASTKGPSVFPLAPSSKSTSGGTAALGCLVKDYFPEPVTVSWNSGALTSGVHTFPAVLQSSGLYSLSSVVTVPSSSLGTQTYICNVNHKPSNTKVDKKV[letters of human IgG1 Fc with changes not shown]
light: DTQVTQSPSSLSASVGDRVTITCITSTDIDVDMNWYQQKPGKPPKLLISQGNTLRPGVPSRFSSSGSGTDFTFTISSLQPEDFATYYCLQSDNLPLTFGQGTKLEIKRTVAAPDIQMTQSPSSLSASVGDRVTITCRASQDISNMLNWYQQKPGKAPKLLIYYTSRLKPGVPSRFSGSGSGTDYTFTISSLQPEDIATYFCQQGKTAPYTFGQGTKLEIKRTVAAPSVFIFPPSDEQLKSGTASVVCLLNNFYPREAKVQWKVDNALQSGNSQESVTEQDSKDSTYSLSSTLTLSKADYEKHKVYACEVTHQGLSSPVTKSFNRGEC
notes: DVD-Ig, outer domain anti-IL-1β, inner domain anti-IL-1α, short linkers
One may read the Kd as the constant that tells how readily two partners part at equilibrium. As usually defined, the koff is the rate constant with which the complex falls apart. By kon is commonly meant the rate constant with which the complex forms. Broadly, the EC50 is the concentration that produces a half-maximal response. In the case of B1, the “Human IL-1α Neutralization Assay EC50 (IL-1 induced hIL-8, MRC-5 cells)” value (shortened to “Human IL-1α Neutralization Assay EC50”) with Recombinant Human IL-1α [1] worked out at 0.0307 nM. For the same molecule, the “Human IL-1β Neutralization Assay EC50 (IL-1 induced hIL-8, MRC-5 cells)” value (shortened to “Human IL-1β Neutralization Assay EC50”) with Recombinant Human IL-1β [2] is 2.05 nM. Moreover, in the assay with Recombinant Human IL-1α [3], the Kd amounted to 0.12 nM, the off-rate (koff) is 1.33e-05 s⁻¹ and the kon was 111000 M⁻¹ s⁻¹. In the assay with Recombinant Human IL-1β [4], the Kd worked out at 0.355 nM, the koff was 0.0011 s⁻¹ and the kon is 3.08e+06 M⁻¹ s⁻¹. Moreover, the 50% effective concentration (EC50) in the assay with Recombinant Human IL-1α [5] was found to be 0.0087 nM. Besides, in the assay with Recombinant Human IL-1β [6], the EC50 is 0.0409 nM.

B2: 1B12.3-SS-3D12r16 (bispecific antibody, human IgG1, kappa)
heavy: EVQLQESGPGLVKPSETLSLTCTVSGFSLSDYGVSWIRQPPGKGLEWLGLIWGGGDTYYNSPLKSRLTISKDNSKSQVSLKLSSVTAADTAVYYCAKQRTLWGYDLYGMDYWGQGTLVTVSSASTKGPEVQLVQSGAEVKKPGASVKVSCKASGYTFKYYGMNWVRQAPGQGLERMGWINTYTGQSTYADDFKGRVTFTLDTSTSTAYMELSSLRSEDTAVYYCARDIYYYGSDFAMDYWGQGTTVTVSSASTKGPSVFPLAPSSKSTSGGTAALGCLVKDYFPEPVTVSWNSGALTSGVHTFPAVLQSSGLYSLSSVVTVPSSSLGTQTYICNVNHKPSNTKVDKKV[letters of human IgG1 Fc with changes not shown]
light: DTVVTQSPAFLSVTPGEKVTITCITSTDIDVDMNWYQQKPDQPPKLLISQGNTLRPGVPSRFSSSGSGTDFTFTISSLEAEDAATYYCLQSDNLPLTFGQGTKLEIKRTVAAPDIQMTQSPSSLSASVGDRVTITCRASQDISNMLNWYQQKPGKAPKLLIYYTSRLKPGVPSRFSGSGSGTDYTFTISSLQPEDIATYFCQQGKTAPYTFGQGTKLEIKRTVAAPSVFIFPPSDEQLKSGTASVVCLLNNFYPREAKVQWKVDNALQSGNSQESVTEQDSKDSTYSLSSTLTLSKADYEKHKVYACEVTHQGLSSPVTKSFNRGEC
notes: as for B1
Turning to B2, the “Human IL-1α Neutralization Assay EC50” value with Recombinant Human IL-1α [1] is 0.0687 nM. The “Human IL-1β Neutralization Assay EC50” value with Recombinant Human IL-1β [2] was found to be 1.74 nM. For the same molecule, the dissociation constant Kd in the assay with Recombinant Human IL-1α [3] is below 0.023 nM; with Recombinant Human IL-1β [4], 0.315 nM. Moreover, the off-rate constant (koff) is below 1e-06 s⁻¹ with Recombinant Human IL-1α [3] and 0.00117 s⁻¹ with Recombinant Human IL-1β [4]. For the same molecule, the on-rate constant (kon) in the assay with Recombinant Human IL-1α [3] came to 43900 M⁻¹ s⁻¹; with Recombinant Human IL-1β [4] it was 3.7e+06 M⁻¹ s⁻¹. In addition, the concentration giving a half-maximal response (EC50) in the assay with Recombinant Human IL-1α [5] is 0.0208 nM; with Recombinant Human IL-1β [6], 0.0352 nM.

B3: 1B12.6-SS-3D12r16 (bispecific antibody, human IgG1, kappa)
heavy: EVQLVESGGGLVQPGGSLRLSCAVSGFTLSDYGVSWIRQAPGKGLEWLGLIWGGGDTYYNSPLKSRLTISKDNSKSTVYLQMNSLRAEDTAVYYCAKQRTLWGYDLYGMDYWGQGTLVTVSSASTKGPEVQLVQSGAEVKKPGASVKVSCKASGYTFKYYGMNWVRQAPGQGLERMGWINTYTGQSTYADDFKGRVTFTLDTSTSTAYMELSSLRSEDTAVYYCARDIYYYGSDFAMDYWGQGTTVTVSSASTKGPSVFPLAPSSKSTSGGTAALGCLVKDYFPEPVTVSWNSGALTSGVHTFPAVLQSSGLYSLSSVVTVPSSSLGTQTYICNVNHKPSNTKVDKKV[letters of human IgG1 Fc with changes not shown]
light: ETTVTQSPSSLSASVGDRVTITCITSTDIDVDMNWYQQKPGKPPKLLISQGNTLRPGVPSRFSSSGSGTDFTFTISSLQPEDFATYYCLQSDNLPLTFGQGTKLEIKRTVAAPDIQMTQSPSSLSASVGDRVTITCRASQDISNMLNWYQQKPGKAPKLLIYYTSRLKPGVPSRFSGSGSGTDYTFTISSLQPEDIATYFCQQGKTAPYTFGQGTKLEIKRTVAAPSVFIFPPSDEQLKSGTASVVCLLNNFYPREAKVQWKVDNALQSGNSQESVTEQDSKDSTYSLSSTLTLSKADYEKHKVYACEVTHQGLSSPVTKSFNRGEC
notes: as for B1
Consider B3, for which the “Human IL-1α Neutralization Assay EC50” value with Recombinant Human IL-1α [1] stood at 0.0648 nM. Moreover, the “Human IL-1β Neutralization Assay EC50” value with Recombinant Human IL-1β [2] stood at 2.58 nM. Further, in the assay with Recombinant Human IL-1α [3], the dissociation constant (Kd) is below 0.0178 nM, the off-rate (koff) is below 1e-06 s⁻¹ and the kon came to 56200 M⁻¹ s⁻¹. In addition, in the assay with Recombinant Human IL-1β [4], the Kd stood at 0.626 nM, the koff turned out to be 0.00184 s⁻¹ and the on-rate constant (kon) worked out at 2.93e+06 M⁻¹ s⁻¹. Further, in the assay with Recombinant Human IL-1α [5], the concentration giving a half-maximal response (EC50) came to 0.0099 nM. The EC50 with Recombinant Human IL-1β [6] was determined as 0.0651 nM.
